Test results taken from the RNAGym collection of RNA variant scans (doi:10.1093/nar/gkz1192).
Read counts are not given, so values of variants with three or more changes are uncertain.

B1: CPEB3 Ribozyme (parent)
chain: UAACAGGGGGCCACAGCAGAAGCGUUCACGUCGCAGCCCCUGUCAGAUUCUGGUGAAUCUGCGAAUUCUGCUGUAUAUCUC

Variants of: B1
Experiment: self-cleavage, relative activity (ratio to wild type); higher = more cleavage; in vitro, sequencing
Outline: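 Libraries of CPEB3 self-cleaving ribozyme mutants came from rounds of error-prone PCR and carried barcodes, which DNA sequencing matched to variants. In vitro transcription used T7 RNA polymerase at 37°C for 5 hours, with a further 15 min in DNase I before EDTA stopped the reaction; the ribozymes cleaved during both steps. The RNA was reverse transcribed with template switching and sequenced on Illumina. Relative activity is the cleaved/total read fraction of a variant divided by that of the unmutated ribozyme, averaged over three batches with at least 5 reads.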

| Variant | self-cleavage |
| --- | --- |
| UAACGGGGGGCCACAGCAGAAGCGUUCACGUCGCAGCCCCUGUCGGUUUCUGGUGAAUCAGCGAAUUCUGCUGUAUGUCUC | 0.2 |
| UAACGGGGGGCCAAAGCAGAUGCGUCCACGUCGCAGCCCCUGUCAGAUUCUGGUGAGUCUGCGAAUUCUGCUGUAUAUCUC | 0.08 |
| UAACGGGGGGCUACAGCAGAAGCGUUCACGUCGCAGCCCCUGUCUGGUUCUGGUGAAUCUGCGAGUUCUGCUGUAUAUCUC | 0.14 |
| UAACGGGGGGCCACAGCAGAAGCGUUCACGUCGCUGCCCCUGUUAGAUUCUGGUGAAUCUGCGAACUCUGCUGUAUAUCUC | 0.21 |
| UAACGGGGGGCAACGGCAGAAGCGUUCACGUCGCAGCCCCUGUCAGAUUCUGGUGAACCUGCGAAUUCUGCUGUAUAUCUC | 0 |
| UAACGGGGGGCCACAGCAGAAGCGUUCACGUCGCAGCCCCUGUCAGUUUCUGGCGAAUCUGCGAAUUCUGCGGUGUAUCUC | 0.08 |
| UAACGGGGGGCCACAGCAGAAGAGCUCACGUCGCAGCCCCUGUCAGAUUCUGGUGAGUCUGUGAAUUCUGCUGUAUAUCUC | 0.04 |
| UAACGGGGGGCCACAGCAGAAGUGUUCACGUCGCAGCCCCUGUCAGAUUCUGGCGAAUCUGCGAAUUCUGCUGUAUAUCUC | 0.28 |
| UAACGGGGGGCCACAGCAGAAGCGUUCACGUCGCGGCCCCUGUCAGAUUCUGGUGAAUCUGCGAACUCUGCUGCAAAUCUC | 1.15 |
| UAACGGGGGGUCACAGCAGAAGCGUUCACGUCGCAGCCCCUGUCAGAUUCUGGUGGAUCUGCGAAUUCUGCUGUAUAUCUC | 0.14 |
| UAACGGGGGGCUGCAGCGGAAGCGUUCACGUCGCAGCCCCUGUCAGAUUCUGGUGAAUCUGCGAAUUCUGCUCUAUAUCUC | 0.53 |
| UAACGGGGGGCCACAGCAGAAGCGUUCACGUCGCAGCCCCUGUCAGAUUCUGGUGAAUCUGCGAGUUCUGCUGUAUAUCCC | 0.1 |
| UAACGGGGGGCCACAGCAGAAGCGUUAACGUCGCAGCCCCUGUCAGAUUCUGGUGAAUCUGCGGAUCCUGCUGUAUAUCUC | 0.23 |
| UAACGGGGGGCCACAGCAGAAGCGUUCACGUCGCAGCCCCUGUCUGAUUCUGGCGAAUCUGCGAAUUCUGCAGUACAUCUC | 0.21 |
| UAACGGGGGGUCACAGCAGUAGCGUUCACGUCGCAGCCCCUGUCAGAUUCUGGUGAAUCUGCGAAUUCAGCUGUAUAUCUC | 0.25 |
| UAACGGGGGGCCACAGCAGAAGGGCUCACGUCGCGGCCCCUGUCAGAUUCUGGUGAAUCUGCGGUUUCCGCUGUAUAUCUC | 0.09 |
| UAACGGGGGGCCACAGCAGAAGCGUUCACGUCGCAGCCCCUGUCAGAUUCUGGUGGAUCUGCGAAUUCUGCUGUGUAUCUC | 0.19 |
| UAACGGGGGGCCACAGCAGAAGGGUUCACGUCGCAGCCCCUGUCGGAUUCUGGUGAAUCGGCGAAUUCUGCCGUAUAUCUU | 0.11 |
| UAACGGGGGGCUACAGCAGAAGCGUUCGCGUCGCAGCCCCUGUCUGAUUCUGGUGAAUCUGCGAAUUCUGCUGUAUAUCUC | 0.37 |
| UAACGGGGGGCCACAGCAGAAGCGUUCAGGUCGCAGCCCCUGUCAGAUUCUGGUGAAUCUGCGAAUUCUGCCGUAUAUCUC | 0.4 |
| UAACGGGGGGCCAUAGCAGAAGCGUUCACGUCUCAGCCUCUGUCAGAUUCUGGUGAAUCUGCGAAUUCUGCUGUAUAUCUC | 0.03 |
| UAACGGGGGGCCACAGAAGAAGCGUCCACGUCGCAGCCCCUGUCAGAUUCUGGUAAAUCUGCGAACUCUGCUGUACAUCUC | 0.21 |
| UAACGGGGGGCCACAGCAGAAGCGUUCACGUCGCAGCCCCUGUCAGGUUCUGGAGAGUCUGCGAAUUCUGCUGUAUGUCUC | 0.33 |

| Variant | self-cleavage |
| --- | --- |
| UAACGGGGGGCCACAGAAGAAGCGUUCACGUCGCAGCCCCUGUCAGAUUCUGGUGAAUCUGCGAUUUCUGCUGUAUAUCUC | 0.28 |
| UAACGGGGGGCAACAGCAGAAGCGUACACGUCGCAGCCCCUGUCAGAUACUGGUGAAUCUGCGAAUUCUGCUGUAUAUCUC | 0.44 |
| UAACGGGGGGCCAUAGCAGAAGCGUUCACGUCGCAGCCCCUGUCAGAUUCUGGCGAAUCUGCGAAUUCUGCUGUAUAUCUC | 0.76 |
| UAACGGGGGGCCACAGCAGAAGCGUUCACGUCGCAGCCCCUGUCAGGUUCUGGUGAAUCUGCGAACUCUGCUGUAUAUCUC | 0.4 |
| UAACGGGGGGCAACAGCAGAUGCGUUCACGUCGCAGCCCCUGUCAGUUUCUGGUGAAUCUGCGAAUUCUGCUGUAUAUCUC | 0.26 |
| UAACGGGGGGCCAUGGCAGAAGCGUUCACGUCGCAGCCCCUGUCGGAUUCCGGCGAAUCUGCGAAUUCUGCUGUAUAUCUC | 0.47 |
| UAACGGGGGGCCACAGCAGAAGUGUUCACGUCGCAGCCCAUGUCAGAUUCUGGUGAAUCUGCGAAUUCUGCUGUAUACCUC | 0.31 |
| UAACGGGGGGCCACAGCAGAAGCGUUCACGUCGCGGCCCCUGUCAGAUUCUGGUGAAUCUGCGAAUUCUUCUGUAUAUCUC | 0.49 |
| UAACGGGGGGCCACAGCAGAAGUGUUCGCGUCGCUGCCCCUGUCAGAUUCUGGUGAAUCUGCGGAUUCUGCUAUACAUCUC | 0.03 |
| UAACGGGGGGCCACAGCAGAAGCGUUCACGUCGCAGCCCCUGUCGGAUUCUGGUGAAUCUGCAAAUUCUGCUGUAUAUCUC | 0.41 |
| UAACGGGGGGCCACAGCAGAAGCGUUCACGUCGCAGCCCCUGUCAGAUUCUGGUGGAUCUGCGAACUCUGCUGUAUAUCUC | 0.23 |
| UAACGGGGGGCCACAGCAGAAGGGUUCGCGACGCAGCCCUUGUCAGAUUCCGGUGAAUCUGCGAAUUCUGCUGUAUAUCUC | 0.06 |
| UAACGGGGGGCCACAGCAGAAGAGUUCACGUCGCAGCCCCCGUCAGAUUCUGGUGAAUCUGCGAAUUCUGCUGUAUAUCUC | 0.44 |
| UAACGGGGGGCCAAAGCGGAAGCGUUCACGUCGCAGCCCCUGUCAGAUUCUGGGGAAUCCGCGAAUUCUGCUGUAUAUCUC | 0.1 |
| UAACGGGGGGCCACAGCAGAAGCGUUCACGUCGCAGCCCCUGUCUGAUUCUGGUGAAUCUGCGAACUCUGCUGUAUAUCUC | 0.2 |
| UAACGGGGGGCCACAGCAGAAGCGUUCACGUCGCGGCCCCUGUCAGAUUCUGGUGAAUCAGCUAAUUCUGCCGUAUAUCUC | 0.86 |
| UAACGGGGGGCAACAGCAGAAGCGUUCACGUCGCUGCCCCUGCCAGAUUCCGGUGAAUCUGCGAAUUCUGCUGUAUAUCAC | 0.46 |
| UAACGGGGGGCCAUAGCAGAAGCGUUCACGUCGCAGCCCCUGCCAGAUUCUGGUGAAUCUGCGAAUUCUGCUGUAUAUAUC | 0.56 |
| UAACGGGGGGCCACAGCAGAAGCGUUCACGUCGCAGCCCCUGUCAGAUUCUGGUGUGUCUGCGAAUUCUGCUGUAUAUCUC | 0.14 |
| UAACGGGGGGGCACAGCAGAAGCGUUCACGUCGCAGCCCCUGUCAGAUUCUGGUGAAUCAGCGUAUUCUGCUGUAUAUCUC | 0.08 |
| UAACGGGGGGCCACAGCAGAAGCGUUCACGUCGCAGCCCCUGUCUGAUUCUGGUGAAUCUGCGAGUUCUGCUGUAUACCUC | 0.14 |
| UAACGGGGGGCCACAGCAGAAGCGUUCACGUCGCGGCCCCCGUCAGAUUCUGGUGAAUCUGCGAAUUCUGCUGUUUAUCUC | 1.21 |
| UAACGGGGGGCAACAGCAGAAGCGUUCACGUCGCAACCCCUGUCAGAUUCUGGUGAAUCUGCGAAUACUGCCGUACAUCUC | 0.08 |

| Variant | self-cleavage |
| --- | --- |
| UAACGGGGGGCUACAGCAGAAGCGGUCACGUCGCAGCCCCCGUCAGUUUCUGGUGAAUCUGCGAUUUCUGCUGUAUGUCUC | 0.03 |
| UAACGGGGGGCUACAGCAGAGGCGUUCACGACGCAGCCCCUGUCAGAUUCUGGUGAAUCUGCGGAUUCUGCUGUACAUCUC | 0.11 |
| UAACGGGGGGGCUCAGCAGAAGCGUUCACGUCGCAGCCCCUGUCAGAUGCUGGUGAAUCCGCGAAUUCUGCUGUAUACCCC | 0.08 |
| UAACGGGGGGCCACAGCAGAAGCGUUCACGUCGCAGCCCCUGUCGGAUUCUGGUGAACCUGUGAAUUCUGCUGUAUAUCUC | 0.07 |
| UAACGGGGGGUCACAGCAGAAGCGUUCACGUCGCAGCCCCUGUCGGAUUCUGGAGAAUCUGCGAAUUCUGCUGUCUAUCUC | 0.46 |
| UAACGGGGGGCCACAGCAGAAGCGUUCACGUCGCAGCCCCUGUCAGAUUCUGGUGAAUCUGCGGAUUCUGCAGUAUAUCUC | 0.24 |
| UAACGGGGGGCCACAGGAGAAGCGUCCGCGUCGCAGCCCCUGUCAGAUUCUGGUGAAUCUGCGAAUUCUGCUGUAUGCCUC | 0.12 |
| UAACGGGGGGCCACAGCAGAAGCGUUCACGUCGCUGCCCCUGUCAGAUUCUGGUGAAUCUGCGAUAUCUGCUGUAUAUCUC | 0.09 |
| UAACGGGGGGCCACAGCAGAAGCGUUCACGUCGCAGCCCCUGUCGGAUUCUGGUGAAUCUGCGAAUCCUGCUGUAUAUCUC | 0.46 |
| UAACGGGGGGCUACAGCAGAAGCGUUCACGUCGCAGCCCCUGUCAGGUUCUGGUGAAUCUGCGAAUUCUGCUGUAUAUCUC | 0.86 |
| UAACGGGGGGCCACAGCAGAAGCGUUCAAGUCGCAGCCCCUGUCGGAUUCUGGUGAAUCUGCGAAUUCUGCUGUAUAUCUC | 0.15 |
| UAACGGGGGGCCAUAGCAGAAGCAUUCACGUCGCAGCCCCUGUCAGAUUCUGGUGAAUCUGCGAGUUCUGCUGUAUAUCUC | 0.07 |
| UAACGGGGGGCCACAGCAGAAGCGUUCACGUCGCGGCCCCUGUCAGAUUCUGGUGAAUCUGCGAAUUCUGCUGUACAUCUC | 1.21 |
| UAACGGGGGGCCACAGCAGAAGCGUUCACGUCGCAGCCCCUGUCAGGUUCUGGUGAAACUGCGAAUUCUGCCGUAUACCUC | 0.28 |
| UAACGGGGGGCAACAGCAGAAGCGUUCUCGUUGCAGCCCCUGUCAGAUUCUGGUGAAUCUGCGAAUUCUGCAGUAUAUCUC | 0.07 |
| UAACGGGGGGCCACAGCAGAAGGGUUCACGUCGCAGCCCCUGUUAGGUUCUGGUGAAUCUGCGAAUUCUGCUGUAUAUCUC | 0.53 |
| UAACGGGGGGCCACAGAAGAAGCGGUCACGUCGCAGCCCCUGUCAGAUUCUGGUGAUUCUGCGAAUUCUGCUGUAUAUCUC | 0.31 |
| UAACGGGGGGCCACAGCAGAAGCGUUCACGUCGCAGCCCCUGUCAGAUUCUGGUGGAUCUGCGAAUUCUGCAGUAUAUCUC | 0.34 |
| UAACGGGGGGUCACUGCAGAAGCGACCACGUCGCAGCCCCUGUCAGAUUCCGGUGAGUCUGCGAAUUCUGCUGUAUAUCUC | 0.45 |
| UAACGGGGGGACACAGCAGAAGCGUUCACGUCGCAGCCCCUGUCAGACUCUGGCGAAUCUGCGAAUUCUGCUGUAUAUCUC | 0.49 |
| UAACGGGGGGCAACAGCAGAAGCGUUCACGUCGCAGCCCCAGUCAGAUUCUGGUGAAUCUGCGGAUCCUGCUGUUUACCUC | 0.1 |
| UAACGGGGGGCCACAGCAGAAGCGUUCACGUCGCAGCCCCUGUCAGAUUCUGGUGAGUCUGCGAAUUCUGCUGUACAUCUC | 0.72 |
